According to the supplement of paper PMC12632987:
In all, about 2,300 sequences were measured (“median log2 fold change of GCK-ALFA target abundance (FLAG IP / Myc IP barcode read proportion)”: median about 0.095, lowest 2% from about -0.47 on). Some of the results follow.

B1: LC3A_74_2074 (protein)
chain: KITPEESEIVFEAVATAHLLRLLAERHPERAEELRALADELLEAANKVIEKAGLDKDLIESGGEIEAELRLDTEPLSVEEALALGREKLKEVNAILKKLE
B2: LC3A_59_2016 (protein)
chain: SAELEKAIAEIKANVDDLEALAKTLAEALWKFKDNEEDVDKLIEAAGEALSKKYGISEEDIEELKKEIREAFKKLKDLEELEKEILELLNDYVNLIPIEE
B3: LC3A_28_1036 (protein)
chain: MELEKKAEEAVKEAEELAKKGEEATVTIDVGKLPTEEAAAIVKRALERLIEISKKYGNQKINVVINVDGDQETIDAIIDIAEEAEKKNPNLTVIVAIDEE
B4: LC3A_17_545 (protein)
chain: MEEIKKELEKLLKELKKLVKKLKPYDPEAAKKLEKELKEAEKLLKEGKLKEAAEKLIKAADELADAFEKLEPEKGTEASVLAMEANGIEIEAIGLLLKLE
B5: LC3A_free_39_2216 (protein)
chain: SREEIEETIREIAREGGIDEEYVRAKMEEIQRVGGLSDEQMLEITKAVLEAVRAGADAREILEDILALTKELVAAGKSPEEIAEEILELIEDYRNLVPLD
B6: LC3A_3_1585 (protein)
chain: LEEKEKELIEALKKAGHSEETIKAVKELLELLKEKGYEEAAEKFIELFLENIDLSSELLLDVALEMKELVEAGKLSEEEIIEEAEELFRVAKSEQEIIEL
B7: LC3A_free_8_2500 (protein)
chain: NNQKVVDAALKGLEELEKELREKAKKLGLSELDILELELEVGSAISDVISNSDKSPEEILKTTREDLERIIELAKELSEELAELAKKKSEEILKELEKLL
B8: LC3A_free_8_2534 (protein)
chain: NKQEFVDKALELLDEFEEKLVKKMKEEGKSRLEILEMELLIGETEIEVIENSDKPQEEILKVVEEGLKEIVELAKEYGEEIAKFAEEKAEEVLKELREFL
B9: LC3A_102_156 (protein)
chain: DIEKLLKETKKKIEELAKKLAKTLSKEEAEKLKKLVKEALELLEKYAEELKIGAQHDYETVEGVAAEIELEDLIKKLKEMGAEEIAEALEKGVKELKKLA
B10: LC3A_132_289 (protein)
chain: QEEKAKELLEEARKLVEEAKENIDDEEKVRELLKQIEEVMERAKKELSPELLAEFFEELEDLLEELSEEFDEAGKEELALEADSLAIEAASLSLEAKEKI
B11: LC3A_free_46_2423 (protein)
chain: MVLEIEIDFIAKTKETAEAVSKEIEELIKKLAEEKGVEVEIEVEIEKLEDGTYYVHIKATITGVTEEQAKEIEDTLTSKIEEILKKYPEVLGSIISSELK
B12: LC3A_132_275 (protein)
chain: GKEKAEEIKKKLKELMKKLEENIDNLEKVKELVKEIEKLLEEAEKELTPEEVAEVAEYLAELAEKVEEKYEKAGKEEEALLVLNLSMYADGIAIEAELKL
B13: LC3A_free_46_2374 (protein)
chain: MKITIYAYKEGMTEKEAEELAEEIEKEIKEIAKKLGVEVEIKTEVVKNADGSYLVVVEIIIKAETEEKEQEAEVAIIEKVDEIAKKRNASVIISVEKIEP
B14: LC3A_147_419 (protein)
chain: GTLEFEIDILGKLTDEEIEELVKRLEEVAKKHGAEVEVEVEVEELPGGERFVRIKLTLKGVKEEDAQTVENALIDEVDKFIEKYKDKIKGYIISSEFIKD
B15: LC3A_free_0_2120 (protein)
chain: KKTVVEVVIILDDSTSEEKAKEIHEKLKEEAEKLAKENGGELKSSLSKSDGSYIITLEITFDTEDIDLALEVERKLVEIAEKILKEANVEATIYSSVYLE
B16: LC3A_28_1234 (protein)
chain: MTPEEIAKRLIEKAKEQLAAGEKVIEIEITEEEASPENTEAIVKAIHEIAKMANEAKGVSIVINVSGKADPEVINAIMDAAEEAEKKYPNVTIIIAIADE
B17: LC3A_3_1658 (protein)
chain: AEELVKETLEYLKKQGKSEEVLEAVKKALTALIEKGYLETAKTFAELLKELADLSDETLLDLANEVLELVETENISEEEMKKRVKELARVARLEEEIEEL
B18: LC3A_28_1147 (protein)
chain: SAEVEAAKKQIDEDAEKDKNEEEVYLNVTITSSMTKEEVEEIMDHVEEVVEKLKDKKKIYVVVTFTEPVSQEVLDTALEKGDEIEKKFPKVDVIVALPEY
B19: LC3A_free_26_2131 (protein)
chain: EEFIDIVALDEAIRLLEEVLKLLEANPNASEEQKELAKKAIEEAKKETLESLEKALKLIKELKKLVEKNKSLPEEVKKKLLELLEEAEKKLEEVIKIMKE
B20: LC3A_3_1483 (protein)
chain: MAAARAALLAALRAAGASDETLAAVAAALDALEAKGYTAAAATFIAVMRANLGLPDEDLLAIAELALELVQTSSLSEAELAARITQIAEDVAGIEELDEE
B21: LC3A_28_1170 (protein)
chain: SETEENAKKALEEAKKAAEAGEPALIELSLPSGATQEEVDKVIKTMEEIAELLKDIPGSAILVDIDSGVKQEHIDKLMDKGDEIEKKYPNVSVIFALDED
B22: LC3A_free_39_2226 (protein)
chain: SQEELDELIKELAKEAGLPYEEVKKKIEEIQKIGGLSTEQMIEIVKALLEAVKAGADAEEILKEAVELAKELKAQGKSPEEIAEAILQLIEDYRNLVPLD
B23: LC3A_28_675 (protein)
chain: MELRENLEKALKEAKEAAAKGEPTVIVIKIPGDATEEEIEELIEKLEEIAEILKDVKGSAIIIDLSKKLKQEHRDKIIDKAEEINEKYPNVTVIIALEEE
B24: LC3A_3_1691 (protein)
chain: MEEKVQEVLELLKEIGADEETLKAAKELLEELTKRGYLEAIKTLLEELKKLKNLPSEILKAMFEDLLHKVRTENLSEEEVVELIKEEAEVAKNEAEIEEL
B25: LC3A_3_1745 (protein)
chain: MEEKLEEIRKELEELGFSEEVIEAALEVAKALLERGFEEAVKVLLEELKKLKDVPDEILLAMLEDIKRYIEENDINEEEAIEKIKEEARIARNEAEIEEL
B26: LC3A_free_46_2393 (protein)
chain: IKGYIDLLLKGATEEQAKEIAEAAVEKIKEEAAKKGINVKIEVTITKDEDGDYFIDIEVEMDTDDENEALDILDEVEDYALEKAKELGIEASSIISVEKD
B27: LC3A_free_39_2177 (protein)
chain: SEEELKKAKEELLKLAKEEGEEALKIAKEILELINGNLELVKLLVEGLKKIKEEGGDVLATLKRILEEIKRLKEEGKSMEEILEEVKEIIEDDLNLIPLD
B28: LC3A_3_1470 (protein)
chain: MDPLIKELRERLKAAGVPEEAIERIVENMEKILKHGVLEEAVEEIKKALESPNATPEKLVELSEELAKRVEEEKLTPEEAREEARVLRLEYIEIEEIDEE
B29: LC3A_free_8_2503 (protein)
chain: SRQEVVDAALDGLDELEKELVEKAKELGLSELDILELELEIGSVIAEVISNADASPEEILKATREGLERIIKLAKELSEELAKLAEEKSKEILEELEKLL

target: MAP1LC3A, Q9H492; assay: median log2 fold change of GCK-ALFA target abundance (FLAG IP / Myc IP barcode read proportion) (log2 ratio); each designed protein is fused to an ALFA-tag nanobody in HEK293 cells to bring the named protein to FLAG-tagged glucokinase (GCK); Myc marks an untargeted standard; higher = target protein stabilised (more abundant); details: target protein: 3xFLAG-MCP-GCK-ALFA reporter; HEK293 landing pad (RPLP)
Procedure, shortened: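 An ALFA-nanobody-fused binder library was recombined into HEK293 landing-pad cells and induced with 2 μg mL^−1 doxycycline. Cells were transfected with a plasmid expressing a FLAG-tagged target and a Myc-tagged standard. After 48 h, lysates underwent anti-FLAG and anti-Myc immunoprecipitation, and circular RNA barcodes were reverse transcribed, amplified and sequenced. Target abundance is the per-binder median log2 ratio of FLAG to Myc barcode read proportions. Barcodes needed ≥10^−7 proportion in both replicates, binders ≥3 barcodes per replicate, and a 10^−6 pseudocount was added; the two replicates were pooled.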

B1 and B2 are within 0.2 log units of each other in “median log2 fold change” value: 0.266 for the first, 0.28 for the second.

B3 and B4 are within 0.2 log units of each other in “median log2 fold change” value: 0.326 for the first, 0.151 for the second.

B5 and B6 are within 0.2 log units of each other in “median log2 fold change” value: 0.0117 for the first, 0.138 for the second.

B7 and B8 are within 0.2 log units of each other in “median log2 fold change” value: -0.157 for the first, -0.00611 for the second.

Compared with B9, B10 is lower in “median log2 fold change” value: 0.18 for the first, -0.307 for the second.

Compared with B11, B12 is lower in “median log2 fold change” value: -0.0218 for the first, -0.404 for the second.

B13 and B14 are within 0.2 log units of each other in “median log2 fold change” value: -0.0534 for the first, -0.158 for the second.

B15 and B16 are within 0.2 log units of each other in “median log2 fold change” value: -0.12 for the first, -0.0382 for the second.

Going from B17 to B18, the “median log2 fold change” value falls from 0.194 to -0.475.

Compared with B19, B20 is higher in “median log2 fold change” value: -0.219 for the first, -0.0039 for the second.

First: B21
Second: B22
The “median log2 fold change” value of the first is lower: -0.424 for the first, 0.267 for the second.

B23 and B24 are within 0.2 log units of each other in “median log2 fold change” value: 0.0592 for the first, 0.187 for the second.

Compared with B25, B26 is lower in “median log2 fold change” value: 0.167 for the first, -0.0869 for the second.

Compared with B27, B28 is higher in “median log2 fold change” value: 0.0742 for the first, 0.314 for the second.

With B29 the “median log2 fold change” value was -0.132.
